± gives the standard deviation of the averaged measurements. The full ranking holds about 33,000 sequences; the median of “E-score (dimensionless, -0.5 to 0.5)” is about -0.046, and the highest 2% start at about 0.36. This is one part of the list.

This experiment deals with T1, SpTbr T-box DNA-binding domain (GST fusion).
T1 sequence: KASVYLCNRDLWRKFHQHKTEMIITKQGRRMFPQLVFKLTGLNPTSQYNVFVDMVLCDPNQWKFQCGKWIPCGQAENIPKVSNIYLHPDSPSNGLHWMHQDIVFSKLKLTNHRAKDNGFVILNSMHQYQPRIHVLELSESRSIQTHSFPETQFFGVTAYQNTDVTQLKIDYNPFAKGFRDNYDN
In words: PBM E-score of 8-mer (E-score (dimensionless, -0.5 to 0.5)); Tbr is Tbrain of the sea star Patiria miniata (Pm) or the sea urchin Strongylocentrotus purpuratus (Sp); higher = stronger binding preference; most listed sequences are background and not binding sites. Particulars: the construct has about 5 more residues each side. The method in brief: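 Each ungapped 8-mer received an enrichment E-score from the Universal PBM Analysis Suite, averaged over duplicate arrays. The proteins were Tbr T-box DNA-binding domains, covering the whole T-box plus about five flanking residues, fused to GST and expressed in BL21 E. coli at 20 °C before glutathione affinity purification. Universal Agilent oligonucleotide arrays were made double-stranded by primer extension and incubated with 200 nM protein in PBS (pH 7.5). The arrays were then scanned and quantified, and every 8-mer was scored from probe intensities.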
For the sequence GCAGTCAC, the “PBM E-score of 8-mer” value stood at 0.179 ± 0.028.
Under CAAACCGC stands 0.074 ± 0.0091.
Under ACGCGCAA stands 0.0442 ± 0.065; under CACTCATA, 0.207 ± 0.023.
Under CGATGCCA stands 0.0144 ± 0.043; under AATTGTTG, 0.136 ± 0.032; under GATAAAGA, -0.139 ± 0.08.
Turning to ACAGATTG, the “PBM E-score of 8-mer” value is -0.0832 ± 0.063.
To AAGGGCTC belongs -0.154 ± 0.066.
To AATTTGGA belongs -0.1059 ± 0.00062.
For the sequence CAAAGTAA, the “PBM E-score of 8-mer” value is -0.108 ± 0.025.
To ACTTCAAA belongs -0.0914 ± 0.02; to ACCCTTCG, -0.0732 ± 0.09; to ACCAATGC, 0.0269 ± 0.028.
To CCATCCGG belongs -0.192 ± 0.0032; to CGATATAA, -0.0143 ± 0.07.
To CCGGAAAA belongs -0.101 ± 0.066; to AGAATTGG, -0.23 ± 0.045.
Consider GTAGGCAC, for which the “PBM E-score of 8-mer” value is 0.112 ± 0.058.
To CTACACAG belongs -0.144 ± 0.03.
To AACGATTC belongs 0.0869 ± 0.055; to ACTTTCGG, 0.045 ± 0.018.
As for CAAGTCGG, the “PBM E-score of 8-mer” value was -0.105 ± 0.075.
Under CCGGATAG stands -0.162 ± 0.0085; under ACCAAAAG, 0.0114 ± 0.014; under AATGCAGC, -0.173 ± 0.0037.
To GGGGCATA belongs -0.336 ± 0.034; to ACCGAGTG, 0.0189 ± 0.044; to TCATAAGA, -0.22 ± 0.029.
Under TACATCCA stands -0.115 ± 0.036; under CGCGGTAC, -0.0515 ± 0.057; under AGGCTGCG, 0.0335 ± 0.049.
Turning to CCTGGGCC, the “PBM E-score of 8-mer” value was -0.362 ± 0.011.
Under TAATTTCA stands -0.0596 ± 0.11; under CCAGTAAA, -0.142 ± 0.026; under AGTATTCA, -0.114 ± 0.037.
To TCATCCCA belongs 0.0944 ± 0.017.
To GACTCTAA belongs -0.0677 ± 0.044; to CGACCGGA, 0.0332 ± 0.012.
GTGGAAGA: the “PBM E-score of 8-mer” value was -0.211 ± 0.058.
On to TATTGAGA, for which the “PBM E-score of 8-mer” value was -0.0845 ± 0.055.
For the sequence CCTTTAAG, the “PBM E-score of 8-mer” value is -0.174 ± 0.049.
Turning to ACCGGCGG, the “PBM E-score of 8-mer” value was -0.0895 ± 0.043.
Under CGGCCGAC stands 0.00933 ± 0.033; under ACAGAGAA, 0.0136 ± 0.033; under CTAGGTGC, 0.3603 ± 0.003.
To ACTGGCGG belongs -0.00448 ± 0.055.
To GTAAGTCA belongs -0.148 ± 0.015; to CGAAAAAG, -0.0669 ± 0.07.
Regarding ACGCCCGA, the “PBM E-score of 8-mer” value is 0.214 ± 0.026.
To ACTTCCCA belongs 0.202 ± 0.005; to GCATCAAC, 0.0313 ± 0.0088.
To AAAATTTA belongs -0.179 ± 0.11; to CCTGTAAG, 0.0754 ± 0.081.
To ACTAGTCA belongs 0.189 ± 0.03; to CTCGCATA, 0.0738 ± 0.076; to AAGGGTTG, -0.117 ± 0.0043.
With AAATATCA, the “PBM E-score of 8-mer” value is -0.0706 ± 0.014.
To CCCGATAC belongs 0.0106 ± 0.0078; to GTGCCAAA, 0.403 ± 0.0099.
Under AAGTTACC stands -0.142 ± 0.0075.
Under CTACGAAC stands 0.0573 ± 0.075; under CCGGCCCA, -0.147 ± 0.024.
For ATACAGAT, the “PBM E-score of 8-mer” value was -0.177 ± 0.038.
To TCTGAACA belongs -0.119 ± 0.0055; to ATGGTCTA, -0.0902 ± 0.063; to CCAATAGG, -0.088 ± 0.028.
CTATTAGA: the “PBM E-score of 8-mer” value was -0.162 ± 0.058.
Regarding GAAACGTC, the “PBM E-score of 8-mer” value was -0.067 ± 0.017.
As to AGAGTGAT, the “PBM E-score of 8-mer” value stood at 0.231 ± 0.039.
Under CTTTAACA stands 0.204 ± 0.1; under GTTAATTA, 0.0378 ± 0.084; under ATGTTCTC, 0.0714 ± 0.043.
Under CTACTTTC stands -0.0311 ± 0.045; under AGCCGGGA, -0.156 ± 0.0034.
Under ATGTCAGC stands 0.023 ± 0.03; under ACGGTTCT, 0.08 ± 0.05.
Consider CGCGGCGA, for which the “PBM E-score of 8-mer” value was found to be 0.204 ± 0.055.
For AACGGACG, the “PBM E-score of 8-mer” value is -0.089 ± 0.047.
Under CCGCATTA stands -0.134 ± 0.023.
Under ATACCCTC stands -0.0914 ± 0.02; under ATCGAGTA, -0.0793 ± 0.074.
Consider AGTTATGA, for which the “PBM E-score of 8-mer” value was -0.0946 ± 0.04.
Turning to CTTTGTGC, the “PBM E-score of 8-mer” value is -0.0738 ± 0.051.
Under TCCACTCA stands -0.145 ± 0.028; under GTGTGCGA, 0.361 ± 0.0042; under CGGTCGAC, 0.0829 ± 0.043.
As for GTTGAGGA, the “PBM E-score of 8-mer” value was found to be 0.00811 ± 0.06.
For AAAATAAA, the “PBM E-score of 8-mer” value was -0.257 ± 0.03.
To ATTCAAAA belongs -0.277 ± 0.063.
With TGATGCCA, the “PBM E-score of 8-mer” value stood at 0.12 ± 0.029.
Under CGGTTGTA stands -0.027 ± 0.0043; under CGGCGAAC, 0.0367 ± 0.014.
To ACGAACTA belongs -0.0707 ± 0.021.
To CTCTTCAA belongs -0.023 ± 0.0061; to GATTTTCC, -0.00302 ± 0.027.
As to AAACTGAC, the “PBM E-score of 8-mer” value was -0.0478 ± 0.047.
Under TCGGTCCA stands -0.315 ± 0.033.
As for GTACTGTA, the “PBM E-score of 8-mer” value is -0.2033 ± 0.0011.
ATGGCGAC: the “PBM E-score of 8-mer” value stood at 0.0707 ± 0.0012.
Take ACTAATAG: the “PBM E-score of 8-mer” value was 0.0429 ± 0.0011.
Under AAGCTCCG stands -0.224 ± 0.016; under AGCGAAGA, 0.106 ± 0.019.
Under AAACACAG stands -0.0414 ± 0.022.
As for TCGTCAAA, the “PBM E-score of 8-mer” value worked out at 0.168 ± 0.0098.
To CCCGTTAC belongs -0.0493 ± 0.068.
Under CTACGGTA stands -0.194 ± 0.07; under CGGGGTGC, 0.233 ± 0.02.
To CCTGCTTA belongs 0.0754 ± 0.039.
For CTGCTGTA, the “PBM E-score of 8-mer” value was -0.108 ± 0.03.

The values above are taken from the supplement of paper PMC4166925.
